The supplement of paper PMC12297408
Structures can show the parent of a compound that is named as a salt. The campaign covered roughly 1,300 compounds. About 40 (3%) showed activity. The list shows a part of the results.

System: Plasmodium falciparum NF54/iGP1_RE9H ulg8 stage V gametocytes
Assay: gametocyte viability (luciferase signal relative to DMSO control) (% of DMSO control); higher = less gametocytocidal activity, active = 50 or less
Details: exposure time: 72 h
In short: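 Viability was calculated relative to the mean of DMSO vehicle wells on each plate. Day-12 stage V gametocytes of line NF54/iGP1_RE9Hulg8 (~2.5% gametocytemia, 3% hematocrit, 0.5% Albumax II medium) were exposed in 96-well plates to compounds at final 10 µM or 1 µM, one well each, for 72 h at 37 °C. Luminescence was then read on an IVIS Lumina II after D-luciferin addition.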

Row | SMILES | gametocyte viability (concentration: 1 µM) | gametocyte viability (concentration: 10 µM)
1 | CC(C)NCC(O)c1ccc2ccccc2c1 (stereo not given) [Pronethalol hydrochloride] | inactive: 90 | inactive: 89.8
2 | Nc1nc2n[nH]nc2c(=O)[nH]1 [Azaguanine-8] | inactive: 95 | inactive: 97.8
3 | CN(C)c1nc(N(C)C)nc(N(C)C)n1 [Altretamine] | inactive: 90.8 | inactive: 91.3
4 | CCCNCC(O)COc1ccccc1C(=O)CCc1ccccc1 (stereo not given) [Propafenone hydrochloride] | inactive: 81.6 | inactive: 75.7
5 | NC(=O)C(c1ccccc1)(c1ccccc1)[C@@H]1CCN(CCc2ccc3c(c2)CCO3)C1 [Darifenacin hydrobromide] | inactive: 81.7 | inactive: 84.2
6 | COc1cc([C@@H]2c3cc4c(cc3[C@@H](O[C@@H]3O[C@@H]5CO[C@@H](C)O[C@H]5[C@H](O)[C@H]3O)[C@H]3COC(=O)[C@H]23)OCO4)cc(OC)c1O [Etoposide] | inactive: 84.9 | inactive: 91
7 | COc1ccccc1OCC(O)CN1CCN(CC(=O)Nc2c(C)cccc2C)CC1 (stereo not given) [Ranolazine] | inactive: 88.9 | inactive: 78.4
8 | C[C@H]1C[C@@H]2[C@H]([C@@H](O)C[C@@]3(C)[C@H]2CC[C@]3(O)C(=O)CO)[C@@]2(C)C=CC(=O)C=C12 [Methylprednisolone, 6-alpha] | inactive: 84.3 | inactive: 79.2
9 | CNCC(O)c1ccc(OC(=O)C(C)(C)C)c(OC(=O)C(C)(C)C)c1 (stereo not given) [Dipivefrin hydrochloride] | inactive: 85.8 | inactive: 89.3
10 | CC(C)NCC(O)c1ccc(O)c(O)c1 (single isomer, unassigned; (+)) [(+)-Isoproterenol (+)-bitartrate salt] | inactive: 100 | inactive: 97.8
11 | CCN(CC)CCc1nc(-c2ccccc2)no1 [Oxalamine citrate salt] | inactive: 98.8 | inactive: 89.9
12 | CC(C)NC[C@@H](O)COc1cccc2ccccc12 [(R)-Propranolol hydrochloride] | inactive: 93.4 | inactive: 89
13 | Cc1c(N(C)CS(=O)(=O)O)c(=O)n(-c2ccccc2)n1C [Dipyrone] | inactive: 82.8 | inactive: 85.5
14 | CC(NCCC(c1ccccc1)c1ccccc1)c1ccccc1 (stereo not given) [Fendiline hydrochloride] | inactive: 90 | inactive: 83.2
15 | O=c1[nH]c(=O)n(C2CCCO2)cc1F (stereo not given) [Tegafur] | inactive: 82.6 | inactive: 82.6
16 | CN1CCN(c2c(F)cc3c(=O)c(C(=O)O)cn(CCF)c3c2F)CC1 [Fleroxacin] | inactive: 85.4 | inactive: 89.8
17 | C[C@H](CCC(=O)O)[C@H]1CC[C@H]2[C@@H]3[C@H](O)C[C@@H]4C[C@H](O)CC[C@]4(C)[C@H]3CC[C@]12C [Chenodiol] | inactive: 83.3 | inactive: 82.6
18 | NNc1nncc2ccccc12 [Hydralazine hydrochloride] | inactive: 94.8 | active: 12.8
19 | CC(=O)OCC(CCn1cnc2cnc(N)nc21)COC(C)=O [Famciclovir] | inactive: 84 | inactive: 80.3
20 | COc1c2occc2c(OC)c2c(=O)cc(C)oc12 [Khellin] | inactive: 92 | inactive: 94.7

Row | SMILES | gametocyte viability (concentration: 1 µM) | gametocyte viability (concentration: 10 µM)
21 | CC[C@H](C)C(=O)O[C@H]1CCC=C2C=C[C@H](C)[C@H](CC[C@@H]3C[C@@H](O)CC(=O)O3)[C@H]21 [Mevastatin] | inactive: 85.9 | inactive: 86.7
22 | Nc1cc(C(Cl)=C(Cl)Cl)c(S(N)(=O)=O)cc1S(N)(=O)=O [Clorsulon] | inactive: 88.1 | inactive: 84.9
23 | O=c1oc2ccccc2c(O)c1Cc1c(O)c2ccccc2oc1=O [Dicumarol] | inactive: 87.8 | inactive: 88.9
24 | Cc1nc(=O)c2cc(CN(C)c3ccc(C(=O)N[C@@H](CCC(=O)O)C(=O)O)s3)ccc2[nH]1 [Raltitrexed] | inactive: 94 | inactive: 87.5
25 | CN1CCN(CCCN2c3ccccc3Sc3ccc(Cl)cc32)CC1 [Prochlorperazine dimaleate] | inactive: 81.3 | inactive: 78.9
26 | CN(C)CCC[C@@]1(c2ccc(F)cc2)OCc2cc(C#N)ccc21 [Escitalopram] | inactive: 95.1 | inactive: 94.7
27 | CCCC(=O)Nc1ncnc2c1ncn2[C@@H]1O[C@@H]2COP(=O)(O)O[C@H]2[C@H]1OC(=O)CCC [Bucladesine sodium salt] | inactive: 90.8 | inactive: 90.6
28 | CN1CCCC(n2nc(Cc3ccc(Cl)cc3)c3ccccc3c2=O)CC1 (stereo not given) [Azelastine HCl] | inactive: 94.7 | inactive: 78.3
29 | CN1CCCCC1CCN1c2ccccc2Sc2ccc([S+](C)[O-])cc21 (stereo not given) [Mesoridazine besylate] | inactive: 88.9 | inactive: 88.7
30 | NC(=O)N/N=C/c1ccc([N+](=O)[O-])o1 [Nitrofural] | inactive: 90.1 | inactive: 89.1
31 | CO[C@@H]1[C@@H](OC(N)=O)[C@@H](O)[C@H](Oc2ccc3c(O)c(NC(=O)c4ccc(O)c(CC=C(C)C)c4)c(=O)oc3c2C)OC1(C)C [Novobiocin sodium salt] | inactive: 84.9 | inactive: 79
32 | CCN1CCN(C(=O)N[C@@H](C(=O)N[C@@H]2C(=O)N3[C@@H]2SC(C)(C)[C@@H]3C(=O)O)c2ccccc2)C(=O)C1=O [Piperacillin sodium salt] | inactive: 93 | inactive: 90.6
33 | OCCN1CCN(CCCN2c3ccccc3Sc3ccc(Cl)cc32)CC1 [Perphenazine] | inactive: 90.1 | inactive: 63.9
34 | CN(C)CCc1c[nH]c2ccc(Cn3cncn3)cc12 [Rizatriptan benzoate] | inactive: 84.2 | inactive: 84
35 | Nc1ccc(S(=O)(=O)c2ccc(N)cc2)cc1 [Dapsone] | inactive: 88.7 | inactive: 85
36 | OC[C@H]1O[C@@H](Oc2ccc(O)cc2)[C@H](O)[C@@H](O)[C@@H]1O [Arbutin] | inactive: 90.2 | inactive: 90.4
37 | N=C(N)NCC1COC2(CCCCC2)O1 (stereo not given) [Guanadrel sulfate] | inactive: 95.2 | inactive: 100
38 | CC1(C)OC(=O)NC1=O [Dimethadione] | inactive: 96 | inactive: 92.9
39 | COc1ccc(NS(=O)(=O)c2ccc(N)cc2)nn1 [Sulfamethoxypyridazine] | inactive: 88.6 | inactive: 87.5
40 | Nc1ccc(C(=O)NCC(=O)O)cc1 [Aminohippuric acid] | inactive: 93.7 | inactive: 93.3

Row | SMILES | gametocyte viability (concentration: 1 µM) | gametocyte viability (concentration: 10 µM)
41 | CCC[C@H](N[C@@H](C)C(=O)N1[C@H](C(=O)O)C[C@@H]2CCCC[C@@H]21)C(=O)OCC [Perindopril] | inactive: 82.4 | inactive: 80.8
42 | CC(=O)Oc1cccc2c1C(=O)c1c(OC(C)=O)cc(C(=O)O)cc1C2=O [Diacerein] | inactive: 86 | inactive: 86.2
43 | C=C1C[C@H]2[C@@H]3C=C(C)C4=CC(=O)CC[C@]4(C)[C@H]3CC[C@]2(C)[C@@]1(OC(C)=O)C(C)=O [Melengestrol acetate] | inactive: 85.4 | inactive: 87.2
44 | CC(=O)N[C@@H](CC(=O)N[C@@H](CCC(=O)O)C(=O)O)C(=O)O [Spaglumic acid] | inactive: 83.5 | inactive: 87.2
45 | Cc1ccc(S(=O)(=O)NC(=O)NN2CC3CCCC3C2)cc1 (stereo not given) [Gliclazide] | inactive: 91.8 | inactive: 88.7
46 | COc1cc2nc(N3CCN(C(=O)c4ccco4)CC3)nc(N)c2cc1OC [Prazosin hydrochloride] | inactive: 90.8 | active: 42.9
47 | CCn1cc(C(=O)O)c(=O)c2cnc(N3CCNCC3)nc21 [Pipemidic acid] | inactive: 98.5 | inactive: 95.9
48 | COc1nc(C)nc(Cl)c1NC1=NCCN1 [Moxonidine] | inactive: 85.5 | inactive: 85.8
49 | O=C(CCCN1CC=C(n2c(=O)[nH]c3ccccc32)CC1)c1ccc(F)cc1 [Droperidol] | inactive: 82.8 | inactive: 90
50 | CCN(CC)CCNC(=O)c1cc(S(C)(=O)=O)ccc1OC [Tiapride hydrochloride] | inactive: 97.2 | inactive: 96.1
51 | C#CCN(C)Cc1ccccc1 [Pargyline hydrochloride] | inactive: 88.2 | inactive: 88.6
52 | CCn1cc(C(=O)O)c(=O)c2ccc(C)nc21 [Nalidixic acid sodium salt] | inactive: 85.8 | inactive: 85.7
53 | COc1ccc2cc(CCC(C)=O)ccc2c1 [Nabumetone] | inactive: 83.3 | inactive: 55
54 | CCN(Cc1ccncc1)C(=O)C(CO)c1ccccc1 (stereo not given) [Tropicamide] | inactive: 94.4 | inactive: 90
55 | CN(C)CCOC1=Cc2ccccc2Sc2ccc(Cl)cc21 [Zotepine] | inactive: 91.1 | inactive: 86
56 | O=C(NCCNCC(O)COc1ccc(O)cc1)N1CCOCC1 (stereo not given) [Xamoterol hemifumarate] | inactive: 89.1 | inactive: 94.4
57 | Cc1ncc([N+](=O)[O-])n1CCO [Metronidazole] | inactive: 96.1 | inactive: 94.3
58 | CCN(CC)CC#CCOC(=O)C(O)(c1ccccc1)C1CCCCC1 (stereo not given) [Oxybutynin chloride] | inactive: 85.3 | inactive: 86
59 | OC(CCN1CCCCC1)(c1ccccc1)C1CC2C=CC1C2 (stereo not given) [Biperiden hydrochloride] | inactive: 94.5 | inactive: 92.1
60 | CN1C2CCCC1CC(NC(=O)c1nn(C)c3ccccc13)C2 (stereo not given) [Granisetron] | inactive: 86.3 | inactive: 82.3
